Experimental data published in the RNAGym collection of RNA variant scans (doi:10.7554/elife.90254).
The source gives no read counts; variants with many changes may rest on few reads.

B1: LINE1-full (parent)
chain: UACGUAGGUGGUUUUCCCCUGAUAGUGCUAAGGGGGCCUGGAAGUUUGGACUGGGCAGAGCUCAACACAGCGUGGCAAAGUGGCUGUGGCUAGACUGCCUCUCUGGAUUCCUCGUCACUCAGCAGGGCAUCUCUGAGAGAAAUGCC

Variants of: B1
Assay: self-cleavage, relative activity (ratio to wild type); higher = more cleavage; in vitro, sequencing; the parent is a self-cleaving ribozyme

Row | Variant | self-cleavage
1 | A30G A67U G89A | 0.05
2 | U5C C16A U100A U115C A124G | 0.54
3 | U14C U45G U47C U73A A136U | 0.69
4 | U15C C63U U132C | 0.4
5 | U47A A117G A140G | 1.02
6 | A57U U100C A140G | 0.34
7 | C18A U39C U62C A136G | 0.16
8 | U73A U81C U87A | 0.03
9 | U9A U12G U14C | 0.65
10 | A6U U13A A31U U39C A94U | 0.6
11 | U14C U39C A65U U85C | 0.67
12 | U81A U96C U104C U115C | 0.4
13 | U5C A59G U85C U96A U134C | 0.54
14 | U12G A59U U96A | 0.08
15 | U15C U47C G106U A140G | 1.18
16 | U14A U73C A77G C95U U102C U143C | 0
17 | A2U U13A G21U A64U A67G U132A | 0.19
18 | C19U A57G A77G | 1.22
19 | A59G A121G A124G | 0.25
20 | U5A A50G A78U A142G | 1.2
21 | A42U A57U U115A U134C | 0.08
22 | U14C U130C C145G | 0.66
23 | U9A U39C A43U U47A A78G U108A | 0.62
24 | A107G U119C U132A | 1.08

Row | Variant | self-cleavage
25 | U14C U39A A69U U73A | 0.1
26 | U47C C51A U62C | 0.06
27 | G89A U102A U109C C110U C116U | 0.03
28 | U102C U132C U143C | 1.67
29 | U47C G55A A59U A138G | 0.64
30 | U9C G34U U132C C146U | 1.88
31 | U13C A59G A121G A136G | 0.26
32 | U46C A59U U109C A124G | 0.99
33 | U14C A67G U115C | 0.71
34 | C17U C56U A78U A136G | 0.21
35 | G4A U20C U115C | 2.67
36 | A69C U73A U96A U143C | 0.09
37 | U1C U20C U100A | 0.36
38 | U9A A22G A50G U62C U130A A141G | 0
39 | A69G A78U C120A | 0.72
40 | U73C A79G U81A | 1.49
41 | C28U A42G G82A | 1.36
42 | U46C C63U U73C G75A U96G | 0.02
43 | U14C G74A U112C | 0.76
44 | U47C A77U U109C | 0.37
45 | U15A A79G A129U | 0.42
46 | G36A G40A U62A U91C | 0.02
47 | U46A U73C A78G G82A A107G | 1.19
48 | G33U U81A U115C A142U | 2.31

Row | Variant | self-cleavage
49 | U46C U81A U87A A141G | 0.48
50 | A2G U39A U52C | 0.4
51 | U13C U14G G21A U45C | 1.15
52 | U13C A92G C103U | 0.35
53 | A6G U73C A124U | 2.57
54 | U14C A79C G114A | 0.59
55 | U15C G126U A138G | 1.34
56 | A30G G34A U47C C113A | 0.78
57 | U102C U109C A136U | 1.12
58 | U12C A30G C131A | 0.89
59 | U14C U39A U73A | 2.12
60 | A78U U81A U119C A141G | 2.93
61 | U14C U62A C84U A140G | 0.08
62 | U14C U91G A92G | 0.09
63 | A57G U85C A124G | 0
64 | U23A G75U C99A U109A U112A | 0.05
65 | U26A A31G U52A G86A A94G | 0.48
66 | A121U A138G A142G | 1.94
67 | A6G A30C A65G U134A | 0.14
68 | G32A G75C A78G | 0.19
69 | A69G U85A A121G U143C | 0.1
70 | U20C U26C C123A | 1.01
71 | U9C U14G U130C | 2.23
72 | U14C U45C G80U U96G | 0.04

Row | Variant | self-cleavage
73 | G49U U102C C110U | 1.08
74 | A64G U115A A141G A142G | 0.11
75 | U20C U46C U91C U134A | 0
76 | A78G U87C A92U U143A | 0.45
77 | U14C U23A A50G U104C U130A U134C | 0
78 | U104A A124G U143C | 0.46
79 | U14C U134C A142G | 0.53
80 | G34A U112G A142U | 1.58
81 | U112A A124G C131U A136U | 0.87
82 | G34A U45G U62A A64G U87A | 0.06
83 | U29C U47C U102C | 1.84
84 | C63A U100A A124G | 0.08
85 | G72U U96A U102C | 0.11
86 | G4A U45C U85A C98A | 0
87 | U9C A65U A140G | 0.21
88 | G60U G106A A124U U132A A141G | 0.04
89 | U39A A117G C131U | 1.16
90 | G33A G97A C113U | 0.13
91 | U39A G49U A77U U108C A141G | 1.12
92 | U26C U29C U46C U62C A94U | 0.34
93 | U15C A67G U73C | 1.35
94 | C18G A50U C113U | 0.77
95 | U15A U47A A59G C61U U130C | 0.04
96 | C17A U20C A31U G33A | 0.86

Row | Variant | self-cleavage
97 | U12G A78U A94G A141G | 0.99
98 | A43G A79G U102C G114A | 1.43
99 | U14A A94G A138G | 0.16
100 | U9C G122C U134A | 2.4
101 | U14C U45C A136U | 1.68
102 | U23A A92G U115A | 0.14
103 | U13A A124G A140G | 0.08
104 | A64G A67C U115C | 0
105 | U9C G48A U134C | 1.25
106 | U62A A138G U143A | 0.06
107 | A64U A124G U143C | 0.3
108 | A22G U96G A138G C146U | 0
109 | U14C A78G U85C | 0.06
110 | G10A U52A A57G U85A C116U U119C | 0.01
111 | G8U A94U U96A | 0.05
112 | A6G U14A U112C | 0.77
113 | A22G C128U A140G | 0.78
114 | C56U C63U U132A A142G | 0.05
115 | A24U U104A U143A | 1.21
116 | U15C A107G U108C A138U | 0.85
117 | G54U A77G A78G | 0.39
118 | A50U A57G U85A A141C | 0
119 | U12A U73C A77G A136G | 1.45
120 | U85C U100C U112C | 0

Row | Variant | self-cleavage
121 | A2G G36U A43G U85G A141G | 0.13
122 | G11A A92C A94G | 0.12
123 | A6G A65G U130C U132A A140G | 0.16
124 | A65U U96A U132A | 0.04
125 | G41A A42U A64U U96C | 0.17
126 | A22U U45C U96C | 0.1
127 | A59C U104G A140G | 0.14
128 | A2G U130C A136G A142G | 0.59
129 | G36A A43G A124G | 0.86
130 | A69G U91C A136U | 0.57
131 | U20C U46A U73A A129U | 0.92
132 | U52A U96C A124G | 0.12
133 | U5A A65G U134A | 0.24
134 | U14C C110U A141G | 1.53
135 | A94U G126A A136G | 0.38
136 | A92U U119C U143C | 1.14
137 | U62C A77G A142G | 0.05
138 | U47C U62C A92G U96A | 0
139 | A50G A59G U87A | 0
140 | G36A G55A U62C A67G A92U U108C C131U | 0.05
141 | A2G A43G U81C | 0
142 | A22G U81C A107G A141G | 1.84
143 | A22G G25A U26C A57G A64U U130C C145A | 0.32
144 | U14A U29C U85A A124G | 0.22

Row | Variant | self-cleavage
145 | A67G U108C U132C G139U | 1.61
146 | G4A U39C U52G U62A | 0.05
147 | A43G U52A U73A A141G | 1.55
148 | U20C A57G U62C A78G A129G | 0
149 | U52C C113A A140G | 1.37
150 | U46C U115A A141G | 1.72
151 | A2U A22G A64U G82A A124G A142G | 0.26
152 | A64G A129G U143C | 0.62
153 | A77C U104C C111U | 1.51
154 | U15C A42G C101U U130A U134C | 1.85
155 | U39C U47A G75A U104A A141G | 0.59
156 | U26C G86U U102C | 0.09
157 | A65G A107G U115C U143A | 0
158 | U39A A57U U100C U112C A129G U132C | 0.48
159 | A22G A59G U62C A136G | 0.19
160 | U23C A140G A142G | 1.63
161 | A6U U14C U46C A67U A69G U87A | 1.28
162 | U26A A136G A141G | 0
163 | A69U U102C U132C | 0
164 | U1C A136G A140G | 1.26
165 | U23C U62C A65G U100A U130C | 0.61
166 | A2U U13C A43U A140G U143C | 0.52
167 | U9C G74A A78G | 1.01
